The supplement of paper PMC3334620
In all, about 33,000 sequences were measured (“E-score (-0.5 to 0.5)”: median about -0.054, highest 2% from about 0.39 on). Some of the results follow.

Target: Ylr278c (UniProt Q05854)
Assay: PBM E-score (8-mer binding enrichment) (E-score (-0.5 to 0.5)); higher = stronger / more preferred TF binding; most listed sequences are background and not binding sites
Conditions: protein concentration: 200 nM; construct: GST-DNA-binding domain
In short: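 The E-score, a modified Wilcoxon-Mann-Whitney statistic, was computed by the Universal PBM Analysis Suite for every ungapped eight-base word pooled with its reverse complement. Scans behind it were normalised with masliner after bound GST-tagged yeast transcription factors were detected with fluorescent anti-GST. The proteins, at about 100-200 nM, had been applied to universal all-10-mer Agilent arrays made double-stranded by primer extension.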

Sequence | PBM E-score
CATTTAGC | -0.163
GTAGAAGA | -0.177
CCGCCCTA | 0.0619
GAAGAGAC | 0.0662
AACAGCTA | -0.129
CACAACCC | -0.038
CACATAAG | -0.256
GCAAAGGC | -0.123
CACCGGGA | 0.352
AGTATACT | -0.327
ATTAGAAA | -0.0531
ACGCCGAT | 0.281
AGCCAACT | -0.179
GAGCGTAA | 0.0612
GGAAGACC | 0.169
AACTGATT | -0.223
AGCGTAAC | -0.133
GACGAGTC | -0.161
CCGTTACG | 0.237
AAAGTTGG | -0.172
TAATGATA | 0.00563
GGTGCCAC | -0.109
AAAATGAT | 0.185
CTTTCCCA | -0.083
ACGCTCTA | -0.183

Sequence | PBM E-score
CGCTGCGA | -0.0136
AGCGCAAG | -0.142
CTCCGTCA | 0.421
AGTGGGTC | -0.0272
AATCTGCT | -0.168
AGGTTGCC | 0.0629
AGGCACCT | -0.0258
CCTGGCCC | -0.0682
CTCAATCA | -0.0469
CTAAGTAA | -0.0989
ACGTAACG | -0.0482
CGCGATGC | 0.0326
CTTCTCCA | -0.168
CATATCGG | 0.154
AGTTCCCA | 0.00271
ACAGGTGA | -0.108
AGGGTCCG | 0.325
CAGGACGC | -0.305
TGTGTCAA | -0.227
CAAATATA | -0.141
CAGGGGGC | -0.125
AGCGGTAG | -0.168
GCCCGCGA | 0.147
GTCCTGGA | -0.221
AAAATCGG | 0.273

Sequence | PBM E-score
ACCTGTAT | -0.295
CCGCGTTC | 0.271
GACGATGA | 0.0474
GAAAAATC | 0.0882
GACGTTTA | -0.29
CTGTCTAC | -0.252
ACTGGCCG | 0.154
AGGATGTA | -0.128
ATAGAAGC | -0.141
CGTAGAAC | -0.0134
AACTCACC | -0.0252
ACAATCTC | 0.0492
GTTTGAGA | -0.321
CAGTACCG | 0.202
TAAGCAAA | -0.133
GCAACGGA | 0.328
GTAAGACA | -0.158
TATTTAAA | 0.00718
AATTGCAC | -0.054
AGTTCCAA | -0.0869
GGGACCGA | 0.164
GGTATTAC | 0.171
CGTACTGC | -0.115
AATACCCA | -0.04
AAACAAGG | -0.00275

Sequence | PBM E-score
CATTGGGG | -0.165
CAGGGTTC | -0.158
ATCCATTC | -0.0913
AAAGCGAA | 0.128
AGTCTAGG | -0.208
AGGGGCAA | 0.0321
AAGTGATG | -0.152
AGTGTTGA | -0.0127
GCACCGAA | 0.166
AATTCGAG | -0.187
CCATTTAA | -0.13
ATCCTTGG | -0.0145
AGAAAAAA | -0.179
CACTCAGC | -0.0426
ACTTCTCG | 0.0904
AACTCGTC | -0.233
GGATTCGA | 0.025
AAGTTGAG | -0.0256
AAGACTGT | -0.375
CAGGTCGA | -0.197
ACGAAACC | 0.0905
GACGTGCC | -0.0295
TCCCTGCA | -0.00909
AGGGGGTC | -0.267
ATGGCCTA | -0.118

Sequence | PBM E-score
ATTAACGG | 0.148
GTTGAGAA | -0.117
GTACTGCA | -0.0765
ACTGCTCT | -0.15
GTGTCAGA | -0.0878
GACCAATC | -0.0699
CCCGGGAG | 0.294
CTACATCC | 0.00841
CATAAGTC | 0.00355
CAGTACAC | -0.137
AATAGTGC | 0.116
GGACGTCC | 0.213
CCCCAACC | -0.0972
AGAAAGAC | -0.0833
GAAATGCC | 0.143
GATTTCGA | 0.0701
CAGAACAG | -0.00784
AGCGGTGA | 0.00074
ACTAAGAG | -0.0302
AGTAATAA | -0.217
CGCATGCA | 0.0625
AGGCCGTA | 0.0868
GAGCAGCC | -0.223
GTATGTCA | -0.122
CCTGCTAA | -0.232

Sequence | PBM E-score
GCGCACCA | 0.0803
AGCCGTAA | -0.0472
TCTAAACA | -0.204
ACTCTTCC | 0.0394
AACACTGG | -0.125
CGATGGAA | 0.078
ACAGCCAG | -0.249
ATTCATCA | -0.06
GAAGACCA | 0.0955
ATAAGAGC | -0.0736
GAGTAGAA | -0.015
ACGCGGCC | 0.0568
CGGAAGGC | 0.301
AGGTAGTA | -0.112
CAGCCCGA | 0.021
ACGCAGCG | -0.141
AGGAACAC | 0.0656
ATGCGACG | 0.0377
AGTCATTC | -0.108
CTTACGAA | -0.214
GAGGGCAA | 0.074
TACTGGCA | -0.212
CACCTAGA | -0.256
TACTCGGA | 0.342
AACCTACA | -0.118

Sequence | PBM E-score
AAGAGGAT | -0.197
ACAAGATC | -0.13
CTATGCAG | -0.166
AAAATTGT | 0.0605
GCACGGGA | 0.102
GACCTTTA | -0.0327
CTGCCCGC | 0.225
CGGTTATA | 0.0459
GAAGCGTA | 0.109
ACTGAGGC | 0.105
AATCTATC | -0.0207
AACTGGAT | 0.036
AATACTCC | 0.251
CAGTGCCC | -0.0369
CGTCGGGC | 0.2
GAACTAAC | 0.0163
CTTATCCC | 0.049
CCTTTCCA | -0.0997
GCCTCTAA | -0.263
CGATAACC | 0.211
GGTCAGAC | -0.267
ATCCATCA | -0.135
